# “And” between values parts separate entries of the source, which are not always exact repeats. Equal values may be shown once. Whole data set: some 5,300 compounds, median “PER2::LUC luminescence relative to vehicle control” near 0.96, cut for the highest 2% near 1.3. Some of the results follow.
# System: mPer2Luc MEF
# Assay: PER2::LUC luminescence relative to vehicle control (fold of vehicle); higher = higher PER2::LUC reporter signal
# Details: 10 µM
# Method in brief: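 Mouse embryonic fibroblasts carrying the mPer2Luc reporter were seeded at ~3000 cells per well in 384-well plates, 48 h before compounds from commercial libraries were added at 10 μM. Cells were grown in DMEM with 10% FBS at 37 °C and 5% CO2. Luminescence was read with the ONE-Glo luciferase assay system 24 h and 30 h after treatment, followed by an alamarBlue viability assay. The value is PER2::LUC luminescence as fold of vehicle control.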
Compound,PER2::LUC luminescence (time after treatment 24 h),PER2::LUC luminescence (time after treatment 30 h)
CCN(CC)Cc1cc(Nc2ccnc3cc(Cl)ccc23)ccc1O,0.671 and 0.499,0.701 and 0.755
COCC(=O)O[C@]1(CCN(C)CCCc2nc3ccccc3[nH]2)CCc2cc(F)ccc2[C@@H]1C(C)C,0.667,0.524
Oc1cc2c(c(Cl)c1O)CCNCC2c1ccccc1 (stereo not drawn),0.957,0.798
O=c1ccc2cccc(O)c2[nH]1,1.06,0.957
CC(C)=CCC/C(C)=C/CC/C(C)=C/CC/C(C)=C/CO,1.08,1.12
CC(C)CCCC(C)C1CCC2C3CCC4CC(O)CCC4(C)C3CCC12C (stereo not drawn),0.978,0.951
COc1ccccc1N1CCN(CCCNc2cc(=O)n(C)c(=O)n2C)CC1,0.98 and 0.844,0.907 and 0.934
O=C(Nc1cccc(Nc2ncc(Br)c(NCCc3cnc[nH]3)n2)c1)N1CCCC1,0.55,0.463
O=C(CCCN1CCC(O)(c2cccc(C(F)(F)F)c2)CC1)c1ccc(F)cc1,0.841,0.846
OC[C@H]1O[C@@](CO)(O[C@H]2O[C@H](CO)[C@@H](O)[C@H](O)[C@H]2O)[C@@H](O[C@H]2O[C@H](CO)[C@@H](O)[C@H](O)[C@H]2O)[C@@H]1O,1.14,1.02
O=C(O)[C@H]1CN[C@H](C(=O)O)C1,1.01,1.04
CC(C)S(=O)(=O)NC[C@H](C)c1ccc(-c2ccc(CCNS(C)(=O)=O)cc2)cc1,0.962,0.902
COc1nc(N)nc2c1ncn2[C@@H]1O[C@H](CO)[C@@H](O)[C@@H]1O,1.11,0.989
CC1(C)C[C@@H]2C(=O)CC[C@H]3O[C@]3(C)CC[C@H]21,0.973,0.909
O=C1CCC(N2C(=O)c3ccccc3C2=O)C(=O)N1 (stereo not drawn),1.16,0.867
O=C1[C@@H]2[C@H]3CC[C@H](C3)[C@@H]2C(=O)N1CCCCN1CCN(c2ncccn2)CC1,0.991,0.996
c1cn2cc(-c3ccc4cn[nH]c4c3)nc(Nc3ccc(N4CCOCC4)cc3)c2n1,0.243,0.3
C[C@H](CCC(=O)NCCS(=O)(=O)O)[C@H]1CC[C@H]2[C@@H]3[C@@H](O)C[C@@H]4C[C@H](O)CC[C@]4(C)[C@H]3CC[C@]12C,1.04,0.996
CCOc1ccc(NC(=O)CC(C)O)cc1 (stereo not drawn),1.09,0.961
C=CCn1c(=O)c2cnc(Nc3ccc(N4CCN(C)CC4)cc3)nc2n1-c1cccc(C(C)(C)O)n1,0.57,0.631
COc1c(O)c2c(=O)cc(OC)c3c4c(OC)cc(=O)c5c(O)c(OC)c6c(c(c1CC(C)=C6C(C)=O)c23)c54,0.779,0.948

Compound,PER2::LUC luminescence (time after treatment 24 h),PER2::LUC luminescence (time after treatment 30 h)
Clc1ccc(C(Cn2ccnc2)OCc2csc3c(Cl)cccc23)c(Cl)c1 (stereo not drawn),1.13,1.12
CC(=O)OCC1=C(C(=O)O)N2C(=O)[C@@H](NC(=O)Cc3cccs3)[C@H]2SC1,1.14,1.13
CCCCCCCCCCCCCCCCCC(=O)NCC(COP(=O)([O-])OCC[N+](C)(C)C)OCC (racemic),0.966,1.03
CCN(CC)CCNC(=O)COc1ccc(OC)cc1,1.38,1.49
Cc1nc2n(c(=O)c1CCN1CCC(c3noc4cc(F)ccc34)CC1)CCCC2O (stereo not drawn),0.965,0.795
CC1(C)S[C@@H]2[C@H](NC(=O)Cc3ccccc3)C(=O)N2[C@H]1C(=O)O,1.06 and 1.17,1.72 and 0.949
CCCCc1nc(Cl)c(CO)n1Cc1ccc(-c2ccccc2-c2nnn[nH]2)cc1,1.04 and 0.621,0.92 and 0.992
COC(=O)C[C@H]1C(C)(C)[C@@H](OC(C)=O)[C@@H]2CC3C4CC(=O)O[C@@H](c5ccoc5)[C@]4(C)CCC3[C@@]1(C)C2=O (stereo partly drawn),0.886,0.963
C=CCCCCCCCCC(=O)O,0.992 and 1.02,1.02 and 0.927
O=C(Nc1cccc2cccnc12)c1ccc(N2C(=O)[C@@H]3[C@H](C2=O)[C@@H]2C=C[C@H]3C2)cc1,1.01,0.982
COc1c(O)cc2oc3cc(O)c(CC=C(C)C)c(O)c3c(=O)c2c1CC=C(C)C,0.0883,0.17
CCOc1cc(N)c(Cl)cc1C(=O)NCC1CN(Cc2ccc(F)cc2)CCO1 (stereo not drawn),1.02,0.976
O=c1cc(-c2ccc(O)c(O[C@@H]3O[C@H](CO)[C@@H](O)[C@H](O)[C@H]3O)c2)oc2cc(O[C@@H]3O[C@H](CO)[C@@H](O)[C@H](O)[C@H]3O)cc(O)c12,1.07,1.04
Cc1cccc(Nc2ccccc2C(=O)O)c1C,0.741,1.01
COc1ccc(/C=C/C(=O)c2cc(O)ccc2O)cc1,0.754,0.827
CCC(C)n1ncn(-c2ccc(N3CCN(c4ccc(OCC5COC(Cn6cncn6)(c6ccc(Cl)cc6Cl)O5)cc4)CC3)cc2)c1=O (stereo not drawn),1.1,1.05
C[n+]1ccccc1/C=N/O,1.07 and 0.839,1.07 and 0.857
CN(C)CCNC(=O)c1cccn2c(=O)c3cc4ccccc4cc3nc12,0.72,0.519
O=C(O)CCNC(=O)c1ccc(/N=N/c2ccc(O)c(C(=O)O)c2)cc1,0.974 and 1.05,0.997 and 0.871
C[C@H]1[C@H](OC(=O)CCC(=O)O)O[C@@H]2O[C@@]3(C)CC[C@H]4[C@H](C)CC[C@@H]1[C@@]24OO3,0.43,0.509
CC(N)C(=O)OC(C)(C)Cc1ccc(Cl)cc1 (stereo not drawn),0.885 and 0.864,0.942 and 0.862

Compound,PER2::LUC luminescence (time after treatment 24 h),PER2::LUC luminescence (time after treatment 30 h)
CC(C)Nc1nc2cc(Cl)c(Cl)cc2n1[C@H]1O[C@@H](CO)[C@H](O)[C@@H]1O,0.987,0.975
CN(CCOc1ccc(C[C@H](Nc2ccccc2C(=O)c2ccccc2)C(=O)O)cc1)c1ccccn1,1.01,1.07
C=CCSCC=C,1.02,1.03
Cc1ccc(-c2c(-c3nn(C)c4ncnc(N5CC[C@H](N6CCCCC6)C5)c34)cnn2C)cc1,0.974,1.06
Cc1ccsc1C(=CCCN1CCC[C@@H](C(=O)O)C1)c1sccc1C,1.09 and 1.11,1.06 and 1.04
CC[n+]1c(-c2ccccc2)c2cc(N)ccc2c2ccc(N)cc21,1.04 and 0.392,0.753 and 0.388
O=C1OC(CN2CCOCC2)CN1/N=C/c1ccc([N+](=O)[O-])o1 (stereo not drawn),0.868 and 0.678,1.2 and 0.716
O=C(CNc1ccc2ccccc2c1)N/N=C/c1cc(Br)c(O)c(Br)c1O,0.824,0.87
CC[C@H]1CN(c2nc(N)c(C(N)=O)nc2Cl)CCN1C1CCN(Cc2ccc(Cl)cc2)CC1,0.96,1.01
CC(C)(C(=O)NCC(F)(F)C(F)(F)F)C(=O)N[C@@H]1C(=O)Nc2ccccc2-c2ccccc21,0.878,0.845
O=C(O)[C@]1(O)C[C@@H](O)[C@@H](O)[C@H](O)C1,0.981,0.935
Cc1cc(C)c(CNC(=O)c2cc(-c3ccc(N4CCN(C)CC4)nc3)cc3c2c(C)cn3C(C)C)c(=O)[nH]1,0.757,0.841
CNCCCN1c2ccccc2CCc2ccccc21,0.586,0.551
Nc1nc(O)c2ncn(CCC(CO)CO)c2n1,1.03,0.846
Fc1ccc([C@@H]2CCNC[C@H]2COc2ccc3c(c2)OCO3)cc1,1.16 and 0.525,0.921 and 0.539
Nc1ccc(S(=O)(=O)NCCc2ccccc2)cc1,1.03,1
Cn1c(O)c(C2=c3ccccc3=NC2=O)c2ccccc21,0.163,0.127
O=c1[nH]cnc2c1ncn2[C@H]1CC[C@@H](CO)O1,0.976 and 0.97,0.956 and 0.774
CN(C/C=C/C#CC(C)(C)C)Cc1cccc2ccccc12,0.995 and 0.883,0.98 and 1.01
NCCC[C@H](N)CC(=O)N[C@H]1CNC(=O)[C@H]([C@H]2C[C@H](O)NC(N)=N2)NC(=O)/C(=C/NC(N)=O)NC(=O)[C@H](CO)NC(=O)[C@H](CO)NC1=O,1.11,0.978
Nc1nc(Nc2ccc3c(c2)CCC(N2CCCC2)CC3)nn1-c1cc2c(nn1)-c1ccccc1CCC2 (stereo not drawn),0.438,0.375

Compound,PER2::LUC luminescence (time after treatment 24 h),PER2::LUC luminescence (time after treatment 30 h)
CCCC(=O)OCOC(=O)C1=C(C)NC(C)=C(C(=O)OC)C1c1cccc(Cl)c1Cl (stereo not drawn),1.14 and 1.2,0.98 and 1.15
Cc1cccc(C(=O)NCN2CCN(c3ccccc3C#N)CC2)c1,1.16,0.887
CN(C)CCCN1c2ccccc2CCc2ccccc21,0.687,0.623
C[C@H]1COc2c(N3CCN(C)CC3)c(F)cc3c(=O)c(C(=O)O)cn1c23,0.954 and 1.02,1.04 and 1.12
CC(=O)c1ccc2c(c1)[C@H](NC(=O)c1ccc(F)c(Cl)c1)[C@H](O)C(C)(C)O2,0.934,1.09
NC(CO)C(=O)NNCc1ccc(O)c(O)c1O (stereo not drawn),1.04,1.1
NC1(C(=O)O)CCc2cc(C(=O)O)ccc21 (stereo not drawn),0.992,0.984
C=C1CCC2C(CC2(C)C)C(=O)CCC1O (stereo not drawn),1.03,1.02
Nc1ccc2c3c(cccc13)C(=O)NC2=O,0.904,1.03
C/C=C1\[C@H]2C=C(C)C[C@]1(N)c1ccc(=O)[nH]c1C2,0.993 and 0.919,0.965 and 0.966
CN1CCN(C2CCN(C(=O)Nc3cc(Oc4ccc(NC(=O)C5(C(=O)Nc6ccc(F)cc6)CC5)c(F)c4)ccn3)CC2)CC1,0.417 and 0.41,0.546 and 0.495
C[N+](C)(C)CCO.[Cl-],1.14,0.914
COc1cccc(-c2cc(=O)c3ccc(OC)cc3o2)c1,0.879,0.955
FC(F)(F)c1cccc(-c2noc(-c3cc(-c4ccccc4)c(C(F)(F)F)s3)n2)c1,1.17,1.14
CN1CCC(OC(c2ccccc2)c2ccccc2)CC1,0.918,0.816
CCOC(=O)[C@H](CCc1ccccc1)N[C@@H](C)C(=O)N1Cc2cc(OC)c(OC)cc2C[C@H]1C(=O)O,1.08,1.13
O=C(Oc1cccc2cccnc12)c1ccccc1,0.981,0.956
COc1cc(/C=C/C(=O)NCCn2c(C(F)(F)F)cc3ccccc32)cc(OC)c1OC,0.876,0.967
COC(=O)c1ccc2c(C(=Nc3ccc(N(C)C(=O)CN4CCN(C)CC4)cc3)c3ccccc3)c(O)[nH]c2c1,0.421,0.285
C[C@@H]1CN(Cc2ncccn2)C[C@H]1c1nc2c(cnn2C2CCOCC2)c(=O)[nH]1,0.969,1.01
Cn1cc(-c2ccc3nnc(Sc4ccc5ncccc5c4)n3n2)cn1,1.07,0.945
